This is one part of the list.

For this experiment, the target named is T1, MBP-FoxP1dN (Mus musculus, UniProt P58462 326-579).
T1 sequence: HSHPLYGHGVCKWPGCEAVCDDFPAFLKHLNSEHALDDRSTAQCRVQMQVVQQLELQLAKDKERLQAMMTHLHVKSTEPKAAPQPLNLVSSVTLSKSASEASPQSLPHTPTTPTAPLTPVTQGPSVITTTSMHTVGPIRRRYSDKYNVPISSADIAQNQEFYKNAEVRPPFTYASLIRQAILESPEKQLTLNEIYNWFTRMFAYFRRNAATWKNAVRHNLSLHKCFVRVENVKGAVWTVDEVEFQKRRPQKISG
Kind of experiment: PD-seq (MBP pull-down with sequencing); 20 mM Tris-HCl pH 7.5, 100 mM NaCl, 1.5 mM MgCl2, 0.4 uM protein, 0.1 uM dsDNA library, 30 min, room temperature, amylose pull-down; high values mean tight binding. Particulars: protein: recombinant; tags: His6-MBP; chain copies: 2; dsDNA, one strand shown. In outline:
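His6-MBP-tagged mouse FoxP3 or FoxP1 fragment lacking the N-terminus, expressed in E. coli, was mixed at 0.4 µM with 0.1 µM Klenow-filled double-stranded degenerate DNA library. Incubation was 30 min at room temperature in Tris pH 7.5 buffer with NaCl and MgCl2. Complexes were caught on amylose resin and washed three times; DNA was released with proteinase K, PCR-barcoded and Illumina-sequenced. Binding is reads-per-million enrichment, pull-down over input, with replicates pooled.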
On to “GATGATTGTTCTCCCAGCTGATGAATTGATCCTTTCGAGTAAACAAATTTTCCTAATCTTTCTGTTCAAGCGCCATCTAC”, for which the binding signal is 0.82 RPM ratio (pull-down/input).

For “GATGATTGTTCTCCCAGCTGATGAATTTATTTAATCGAGTAAACAAATTTTCCTAATCTTTCTGTTCAAGCGCCATCTAC”, the binding signal is 1.4 RPM ratio (pull-down/input).

As to “GATGATTGTTCTCCCAGCTGATGAATTATCTGAGTCGAGTAAACAAATTTTCCTAATCTTTCTGTTCAAGCGCCATCTAC”, the binding signal is 0.949 RPM ratio (pull-down/input).

With “GATGATTGTTCTCCCAGCTGATGAATTTTGAAGCTCGAGTAAACAAATTTTCCTAATCTTTCTGTTCAAGCGCCATCTAC”, the binding signal was 0.831 RPM ratio (pull-down/input).

Take “GATGATTGTTCTCCCAGCTGATGAATTTGTGCATTCGAGTAAACAAATTTTCCTAATCTTTCTGTTCAAGCGCCATCTAC”: the binding signal was 1.64 RPM ratio (pull-down/input).

Turning to “GATGATTGTTCTCCCAGCTGATGAATTGCTCCGTTCGAGTAAACAAATTTTCCTAATCTTTCTGTTCAAGCGCCATCTAC”, the binding signal was 0.977 RPM ratio (pull-down/input).

Take “GATGATTGTTCTCCCAGCTGATGAATTGGAACCTTCGAGTAAACAAATTTTCCTAATCTTTCTGTTCAAGCGCCATCTAC”: the binding signal is 0.816 RPM ratio (pull-down/input).

Turning to “GATGATTGTTCTCCCAGCTGATGAATTACCAGGTTCGAGTAAACAAATTTTCCTAATCTTTCTGTTCAAGCGCCATCTAC”, the binding signal was 0.873 RPM ratio (pull-down/input).

As for “GATGATTGTTCTCCCAGCTGATGAATTAGTCTCATCGAGTAAACAAATTTTCCTAATCTTTCTGTTCAAGCGCCATCTAC”, the binding signal was 1.03 RPM ratio (pull-down/input).

With “GATGATTGTTCTCCCAGCTGATGAATTTACTCCCTCGAGTAAACAAATTTTCCTAATCTTTCTGTTCAAGCGCCATCTAC”, the binding signal was 1.21 RPM ratio (pull-down/input).

Regarding “GATGATTGTTCTCCCAGCTGATGAATTGACCAAATCGAGTAAACAAATTTTCCTAATCTTTCTGTTCAAGCGCCATCTAC”, the binding signal was 1.22 RPM ratio (pull-down/input).

As for “GATGATTGTTCTCCCAGCTGATGAATTTACCTCGTCGAGTAAACAAATTTTCCTAATCTTTCTGTTCAAGCGCCATCTAC”, the binding signal was 1.12 RPM ratio (pull-down/input).

For the sequence “GATGATTGTTCTCCCAGCTGATGAATTCCACGTTTCGAGTAAACAAATTTTCCTAATCTTTCTGTTCAAGCGCCATCTAC”, the binding signal was 0.878 RPM ratio (pull-down/input).

Turning to “GATGATTGTTCTCCCAGCTGATGAATTTGGTTGATCGAGTAAACAAATTTTCCTAATCTTTCTGTTCAAGCGCCATCTAC”, the binding signal was 1.15 RPM ratio (pull-down/input).

Regarding “GATGATTGTTCTCCCAGCTGATGAATTGAACCCGTCGAGTAAACAAATTTTCCTAATCTTTCTGTTCAAGCGCCATCTAC”, the binding signal is 0.83 RPM ratio (pull-down/input).

As to “GATGATTGTTCTCCCAGCTGATGAATTAGCGGGCTCGAGTAAACAAATTTTCCTAATCTTTCTGTTCAAGCGCCATCTAC”, the binding signal is 0.765 RPM ratio (pull-down/input).

As for “GATGATTGTTCTCCCAGCTGATGAATTGTATTCCTCGAGTAAACAAATTTTCCTAATCTTTCTGTTCAAGCGCCATCTAC”, the binding signal is 1.17 RPM ratio (pull-down/input).

For the sequence “GATGATTGTTCTCCCAGCTGATGAATTGGCACGGTCGAGTAAACAAATTTTCCTAATCTTTCTGTTCAAGCGCCATCTAC”, the binding signal is 0.782 RPM ratio (pull-down/input).

For the origin of these results see publication PMC12820563, “FoxP3 forms a head-to-head dimer in vivo and stabilizes its multimerization on adjacent microsatellites”.
